Results taken from PubChem BioAssay AID2675 (National Center for Advancing Translational Sciences (NCATS), 2010).
Hit rate of the full screen: of about 280,000 compounds, about 100 (0.036%) were called active. The shares of active, inactive and inconclusive entries below differ from those in the screen. Calls follow the shape of the dose curve; as a rule, active = well fitted inhibition curve with a large enough effect in the signal ratio, with a control signal flat (not every such curve was filed as active); inconclusive = small, poorly fitted or top-dose-only effect, or effect the other way, or a change in a side signal; inactive = no such curve, though single readings can be large or run the other way; the % refers to the signal ratio. A potency beside an inconclusive call is a rough fit, not a confirmed value. A note “side channel” means that the fit belongs to a control or component signal, not to the main read-out.

Each compound was assayed against Muscleblind-like protein 1 (Homo sapiens) (UniProt Q9NR56) (assay: qHTS Assay for Inhibitors of MBNL1-poly(CUG) RNA binding). Details: TR-FRET MBNL1-His/biotin-(CUG)12 binding, 665/545 ratio; activity change, negative = inhibition: at 57.5 µM (top of the series).
UniProt Q9NR56, sequence (Q9NR56 whole entry, looked up): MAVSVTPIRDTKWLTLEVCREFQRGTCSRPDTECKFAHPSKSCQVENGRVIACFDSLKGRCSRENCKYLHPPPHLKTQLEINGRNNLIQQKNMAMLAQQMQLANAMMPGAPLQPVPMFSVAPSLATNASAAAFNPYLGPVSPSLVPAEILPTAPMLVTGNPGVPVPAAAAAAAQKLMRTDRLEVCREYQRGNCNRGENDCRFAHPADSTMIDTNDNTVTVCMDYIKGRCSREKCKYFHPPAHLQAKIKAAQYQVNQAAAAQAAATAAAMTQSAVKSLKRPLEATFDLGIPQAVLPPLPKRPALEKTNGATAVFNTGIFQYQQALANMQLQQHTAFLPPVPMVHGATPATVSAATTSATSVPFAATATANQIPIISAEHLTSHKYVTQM
In short: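 Compounds (final 92 nM to 58 uM) are added to His-tagged MBNL1 and biotin-(CUG)12, then terbium anti-His antibody and streptavidin-XL665 (5 nM final). After 60 min at room temperature, the 665/545 nm ratio is read.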
% is scaled to controls: 0 for no effect and ±100 for the full control effect; potency is read from the fitted curve at half-maximal effect; tags tell the direction and shape of the fitted curve or compound fluorescence and quenching.

Structure (SMILES) | activity change, negative = inhibition | Potency
CC(=O)c1sc(NC(=O)COc2ccc(C(C)C)c(C)c2)nc1C | inactive: -1.12% | –
O=C(NCc1ccco1)c1nc2nc(-c3cccs3)cc(C(F)(F)F)n2n1 | – | inconclusive: 14.1 µM [quencher, side channel, partial curve]
CC(C)(C)CN1CCNC(=O)C1CC(=O)NCCc1ccccc1F (stereo not given) | inactive: 3.05% | –
COc1ccc(CCn2c(N)c(S(=O)(=O)c3cccs3)c3nc4ccccc4nc32)cc1OC | – | inconclusive: 10 µM [quencher, side channel, partial curve]
N#Cc1c(-c2cccc(Cl)c2)[nH]c(=S)[nH]c1=O | – | inconclusive: 0.112 µM [quencher, side channel, full curve, poor fit]
O=c1[nH]c2cc3c(cc2cc1C(c1nnnn1Cc1ccccc1)N1CCCCCC1)OCCO3 (stereo not given) | inactive: 61.9% | –
CCOC(=O)N1CCC(NC(=O)CC(NS(=O)(=O)c2ccc(Cl)cc2)c2ccco2)CC1 (stereo not given) | inactive: -5.23% | –
Cc1ccc(S(=O)(=O)CC(O)COc2ccccc2C#N)cc1 (stereo not given) | inactive: 1.7% | –
O=[N+]([O-])c1ccc(N2CCNCC2)c(S(=O)(=O)N2CCOCC2)c1 | – | inconclusive: 22.4 µM [quencher, side channel, partial curve, poor fit]
COc1cc(NC(=O)COC(=O)CNS(=O)(=O)c2ccc(F)c(F)c2F)cc(OC)c1 | – | inconclusive: 14.1 µM [quencher, side channel, single point]
O=C(Nc1ccccc1Cl)c1cc[n+](Cc2ccc([N+](=O)[O-])cc2)cc1 | – | inconclusive: 7.94 µM [quencher, side channel, partial curve]
CCC(=O)c1cccc2c1N=CC1=C(CC(C)(C)CC1=O)N2 | – | inconclusive: 20 µM [quencher, side channel, partial curve]
COc1ccc(CCNC(=O)c2ccc(-c3ccc([N+](=O)[O-])cc3Cl)o2)cc1OC | – | inconclusive: 12.6 µM [quencher, side channel, partial curve]
COC1=C(Nc2ccccc2OC)C(=O)c2ccccc2C1=O | – | inconclusive: 7.94 µM [quencher, side channel, partial curve, poor fit]
Cc1ccc(-c2nc3cc(N)ccc3o2)c(C)c1 | inactive: 7.68% | –
O=C1c2ccc([N+](=O)[O-])cc2C(=O)N1CNc1ccccn1 | – | inconclusive: 6.31 µM [quencher, side channel, partial curve]
CCc1ccccc1NC(=O)c1cccc(NC(=O)/C=C/c2ccco2)c1 | – | inconclusive: 28.2 µM [quencher, side channel, single point]
O=C(Cn1cnc2cc([N+](=O)[O-])ccc2c1=O)NCc1ccc(Cl)cc1 | – | inconclusive: 12.6 µM [quencher, side channel, partial curve]
O=C(NC(=S)Nc1ccc(Cl)cn1)C12CC3CC(CC(C3)C1)C2 | inactive: -8.64% | –
COc1cccc(/C=C/c2ccccn2)c1O | – | inconclusive: 28.2 µM [quencher, side channel, single point]

Structure (SMILES) | activity change, negative = inhibition | Potency
CC(=O)OCCNC(=O)c1cc2ccccc2oc1=O | – | inconclusive: 12.6 µM [quencher, side channel, partial curve]
Cc1ccc(Nc2ccc(S(=O)(=O)N3CCOCC3)cc2[N+](=O)[O-])cc1C | – | inconclusive: 14.1 µM [quencher, side channel, partial curve]
Cc1ccc(S(=O)(=O)NNc2ccccc2)cc1 | inactive: -6.57% | –
COc1ccc(NC(=S)NC(NC(=O)CCl)C(Cl)(Cl)Cl)c([N+](=O)[O-])c1 (stereo not given) | – | inconclusive: 7.08 µM [quencher, side channel, partial curve]
Cc1ccc(-c2cc(C)nc3nc(N)nn23)cc1 | inactive: -0.775% | –
CC(C)c1nc(SCC(=O)N2c3ccccc3CC2C)c2ccccc2n1 (stereo not given) | – | inconclusive: 11.2 µM [quencher, side channel, partial curve]
O=C(Nc1cccc(N=Cc2cc(Cl)cc(Br)c2O)c1)c1ccco1 | inactive: -6.77% | –
CCOC(=O)CN1CC23C=CC(O2)C(C(=O)NCc2ccccc2OC)C3C1=O (stereo not given) | – | inconclusive: 0.891 µM [quencher, side channel, single point]
Cc1cccn2cc(-c3cc4ccccc4oc3=O)nc12 | – | inconclusive: 35.5 µM [quencher, side channel, partial curve]
COc1ccc(CN2CCN(c3ccccc3OC)CC2)c(OC)c1 | – | inconclusive: 79.4 µM [inhibitor, partial curve]
Cc1ccc(Cl)cc1NC(=S)N(CCCN1CCOCC1)Cc1ccccn1 | – | inconclusive: 39.8 µM [quencher, side channel, single point]
CCN(CC)CCOc1ccc2c(c1)C(=NNC(=O)c1ccccn1)c1cc(OCCN(CC)CC)ccc1-2 | – | inconclusive: 79.4 µM [inhibitor, single point]
CC1CCN(CCCn2c(=S)[nH]c3ccc(N4CCOCC4)cc3c2=O)CC1 | inactive: -2.63% | –
CC(C)NC(=O)c1ccc2c3n(nc2c1)-c1ccc(Cl)cc1CO3 | – | inconclusive: 14.1 µM [quencher, side channel, partial curve]
Cc1ncc([N+](=O)[O-])n1CCOC(=O)c1ccccc1 | – | inconclusive: 39.8 µM [quencher, single point]
COc1cccc(OC)c1C(=O)NC(=S)NCc1ccccc1 | inactive: -10.8% | –
COc1ccc(NC(=O)CSc2n[nH]c(C(C)C)n2)c([N+](=O)[O-])c1 | – | inconclusive: 15.8 µM [quencher, partial curve]
COC(=O)CCC(=O)OC1(C)C(=O)C=C2C=C(C3CC3)N(c3ccccc3)C=C2C1=O (stereo not given) | – | inconclusive: 20 µM [quencher, side channel, single point]
CCCN(CCC)C(=O)CCS(=O)(=O)c1cccc2nsnc12 | – | inconclusive: 10 µM [quencher, partial curve]
COc1ccc(N2CC(C(=O)N/N=C/c3cccs3)CC2=O)cc1 (stereo not given) | – | inconclusive: 15.8 µM [quencher, side channel, partial curve]

Structure (SMILES) | activity change, negative = inhibition | Potency
O=C(CN1C(=O)C2C3c4ccccc4C(c4ccccc43)C2C1=O)Nc1ccccc1C(=O)O (stereo not given) | – | inconclusive: 39.8 µM [fluorescent, side channel, partial curve]
O=C(CSc1ccc(-c2cccc([N+](=O)[O-])c2)nn1)NC1CCCC1 | – | inconclusive: 3.16 µM [quencher, side channel, full curve]
Nc1cc(C(=O)O)c(N)c2c1C(=O)c1ccccc1C2=O | – | inconclusive: 12.6 µM [quencher, side channel, partial curve]
CC(=O)Nc1ccc(/C=N\NC(=O)CNS(=O)(=O)c2ccc([N+](=O)[O-])cc2)cc1 | – | inconclusive: 14.1 µM [quencher, partial curve]
CC1(C)c2ccccc2N2CC(=O)N(CC(N)=O)C21C (stereo not given) | – | inconclusive: 28.2 µM [quencher, side channel, partial curve]
CCC1=Nc2ccccc2NC2=C1C(=O)CCC2 | – | inconclusive: 31.6 µM [quencher, side channel, single point]
CNC(=O)CN1C(=O)c2cccc3cccc1c23 | – | inconclusive: 17.8 µM [quencher, side channel, partial curve]
Cc1ccc(OCC(=O)c2cc(C)n(CC(F)(F)F)c2C)c([N+](=O)[O-])n1 | – | inconclusive: 28.2 µM [quencher, side channel, partial curve]
CC(C)(C)N1C(=O)c2ccc(C(=O)Nc3ccc(C(=O)O)cc3)cc2C1=O | – | inconclusive: 31.6 µM [quencher, single point]
O=C(NNS(=O)(=O)c1ccccc1)c1cc2cc3ccccc3nc2s1 | – | inconclusive: 28.2 µM [quencher, side channel, partial curve]
C=CCSc1nnc2c(n1)OC(c1c(C)[nH]n(-c3ccccc3)c1=O)Nc1ccccc1-2 (stereo not given) | – | inconclusive: 11.2 µM [quencher, side channel, partial curve]
CC(C)C(=O)N1CCN(c2ccccc2NC(=O)c2cc([N+](=O)[O-])ccc2N2CCOCC2)CC1 | – | inconclusive: 11.2 µM [quencher, side channel, partial curve]
COc1cc(NC(=O)Cc2ccc(OC)c(S(=O)(=O)N3CCOCC3)c2)c(OC)cc1Cl | inactive: -4.5% | –
CCN(CC)CCSc1nnc2c3ccccc3n(CCc3ccccc3)c2n1 | – | inconclusive: 20 µM [quencher, side channel, single point]
CCc1ccc(C(=O)/C=C/c2cnn(C)c2C)s1 | inactive: 22.6% | –
N#Cc1c(N)n(-c2ccccc2N)c2nc3ccccc3nc12 | – | inconclusive: 12.6 µM [quencher, side channel, partial curve]
Cc1nn(CCCC(=O)Nc2cc(Oc3ccc(F)cc3)cc([N+](=O)[O-])c2)c(C)c1[N+](=O)[O-] | – | inconclusive: 7.08 µM [quencher, side channel, single point]
O=C(NN1C(=O)c2ccccc2NC1c1ccc([N+](=O)[O-])o1)c1ccc(Br)cc1 (stereo not given) | – | inconclusive: 35.5 µM [quencher, side channel, single point]
S=C(NCCN1CCOCC1)Nc1ccc(Br)cc1 | – | inconclusive: 0.141 µM [quencher, side channel, full curve, poor fit]
O=C(NCc1cccnc1)c1cnc2ccccc2n1 | – | inconclusive: 28.2 µM [quencher, side channel, partial curve]
